The source gives no read counts; variants with many changes may rest on few reads.
B1: CPEB3 Ribozyme (parent)
chain: UAACAGGGGGCCACAGCAGAAGCGUUCACGUCGCAGCCCCUGUCAGAUUCUGGUGAAUCUGCGAAUUCUGCUGUAUAUCUC

Variants of: B1
Test: self-cleavage, relative activity (ratio to wild type); higher = more cleavage; in vitro, sequencing
Method in brief: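 Relative activity compares each variant's cleaved/total read fraction with that of the unmutated ribozyme. To get these fractions, barcoded CPEB3 ribozyme libraries from rounds of error-prone PCR were transcribed with T7 RNA polymerase for 5 hours at 37°C and then given 15 min of DNase I treatment before EDTA was added. The RNAs were reverse transcribed with template switching and sequenced on Illumina, and DNA sequencing linked barcodes to variants. A minimum of 5 reads applied, and three batches were averaged.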
C17U U49A U72C U74A showed a self-cleavage of 0.4.
Variant A18C U43C A64U U69C has a self-cleavage of 0.11.
In the case of A18C A21G C62A U72C, the self-cleavage is reported as 0.19.
Work on C17U U25C A28G U69C yielded a self-cleavage of 0.18.
Work on C17U G19A A20C U25A U54G U66C yielded a self-cleavage of 0.23.
For C17U A20G A28G U66C U78C, the self-cleavage was 0.06.
A18C G33A U43C A45C U72C U74A showed a self-cleavage of 0.23.
C17U U25A U31C showed a self-cleavage of 0.22.
A18C C34U G36U A64U showed a self-cleavage of 0.21.
For A18G A20U C29U U51C, the self-cleavage was 0.07.
With C17U A20G C40A U58C U67C G73A the self-cleavage was 0.06.
In the case of A18G A20U A47U U72A, the self-cleavage is reported as 0.07.
C17U U26A U54C A65G showed a self-cleavage of 0.08.
In the case of A18C U31C U51A, the self-cleavage is reported as 0.11.
C17U A45U U54C A65G U67A gave a self-cleavage of 0.12.
C17U U25C U43A A45U U48C U66C showed a self-cleavage of 0.19.
In the case of C17U A18G U25C U26C U51C A57U, the self-cleavage is reported as 0.07.
A18G A20U U25A U60A gave a self-cleavage of 0.05.
A18C U26C A47U U60G U74C showed a self-cleavage of 0.17.
In the case of C17U C34U A47U U48C U51A A64G U67C, the self-cleavage is reported as 0.07.
Work on C17U C29A U49C U69C yielded a self-cleavage of 0.23.
Variant A18C U26C A45U has a self-cleavage of 0.29.
C17U A45C U69A gave a self-cleavage of 0.17.
In the case of C17U U43G C79U, the self-cleavage is reported as 0.13.
In the case of A18G A20G U76C, the self-cleavage is reported as 0.59.
In the case of C17U A18U U41C U66C C71A U78C, the self-cleavage is reported as 0.06.
A18C A28U U76C gave a self-cleavage of 0.12.
With C17U U41C A45G U58C the self-cleavage was 0.26.
For A18G A20G U43A A47G C62U, the self-cleavage was 0.07.
Work on A18C U25C U76A yielded a self-cleavage of 0.04.
A18C U31A U49C U72C showed a self-cleavage of 0.07.
In the case of A18C A35G U72A, the self-cleavage is reported as 0.15.
A18G A20G A28G U48C gave a self-cleavage of 0.56.
Work on A18C U26C A28G U60C U69A U72C yielded a self-cleavage of 0.
A18G A20G U51A U54A U67C U72G gave a self-cleavage of 0.22.
For A18C A45U U51C U78C, the self-cleavage was 0.24.
C17U U43C A57U U69C gave a self-cleavage of 0.34.
In the case of A18C A47G A75U, the self-cleavage is reported as 0.19.
With A18C A20G A35U U41A the self-cleavage was 0.32.
Variant A18C U26C U51C A56G U66C U80C has a self-cleavage of 0.18.
A18G A20G C23G A35G A56G showed a self-cleavage of 0.07.
In the case of C17U C37U U41C, the self-cleavage is reported as 0.51.
Work on C17U A21U U48C A77G U80A yielded a self-cleavage of 0.3.
Variant C17U U25A C32G U67A U80A has a self-cleavage of 0.15.
Variant C17U U25C A47U U49C U54C U78A has a self-cleavage of 0.07.
For A18G A20G U41A U43A, the self-cleavage was 0.49.
C17U A28G G33U U43C U69A showed a self-cleavage of 0.07.
C17U U41A U69C gave a self-cleavage of 0.19.
A18C A47G U54C gave a self-cleavage of 0.28.
A18C G33A U48C U49C C62U showed a self-cleavage of 0.14.
Work on A18G A20G A57G G70A yielded a self-cleavage of 0.07.
A18C A20G U25C showed a self-cleavage of 0.09.
Work on A18C A21G A28G U60C G61A yielded a self-cleavage of 0.05.
With A18C G52A U80A the self-cleavage was 0.83.
Variant A18C G19U U41C A65U has a self-cleavage of 0.09.
In the case of A18G A20G A35G C38U U48A A77G U80A, the self-cleavage is reported as 0.42.
C17U U67C G73A showed a self-cleavage of 0.45.
Work on C17U A18G U54A G73A U78A U80C yielded a self-cleavage of 0.96.
C17U G36U C37U U49C A75G showed a self-cleavage of 0.04.
A18C U26A U67A U76C U80A gave a self-cleavage of 0.09.
Work on C17U U51C A64G U78C yielded a self-cleavage of 0.09.
Work on A18G A20G U51C U54G U58C U78A yielded a self-cleavage of 0.1.
Work on C17U A35U A45C U58A yielded a self-cleavage of 0.07.
Variant A18C A21U U60A has a self-cleavage of 0.14.
Variant A18C U54C A65G has a self-cleavage of 0.12.
A18C A35G A45U U51C U69A gave a self-cleavage of 0.26.
Variant A18G A20G U41C has a self-cleavage of 0.47.
A18C U25C A47U U51A A64G showed a self-cleavage of 0.08.
With C17U A21G U25C U76C the self-cleavage was 0.21.
C17U U41A U49C U51C C71A U72A showed a self-cleavage of 0.12.
Variant A18C A20G G30A A35U C40A U43C A65G has a self-cleavage of 0.15.
A18G A20G U60G gave a self-cleavage of 0.34.
A18C C23U U31C A45U U60C U67C U78C showed a self-cleavage of 0.04.
With C17U U25C A57G U69C U74C the self-cleavage was 0.32.
For C17U A28U U41C G46U U49C A56G, the self-cleavage was 0.06.
C17U U48C U51G showed a self-cleavage of 0.46.
Variant A18C A45U U54C U58A U78C has a self-cleavage of 0.05.
With A18C U66A U72C the self-cleavage was 0.17.
In the case of A18G A20G U54A A56U, the self-cleavage is reported as 0.32.
A18C A47G A65G showed a self-cleavage of 0.2.
For A18C C37U U51A C62G, the self-cleavage was 0.07.
Variant A18C A20G U25C C38U C62A A65G U69G has a self-cleavage of 0.1.
Variant A18C G52A U60C U72A has a self-cleavage of 0.18.
For A18C A28G U80A, the self-cleavage was 0.31.
C17U U26C U41A U43C A57G A65G gave a self-cleavage of 0.07.
C17U U51A A57G U66A U74C showed a self-cleavage of 0.12.
C17U U31C U60G showed a self-cleavage of 0.17.
Work on C17U A18G U43A U72C yielded a self-cleavage of 0.33.
C17U U25C A28G U41A G63U gave a self-cleavage of 0.11.
C17U C37A U49C U60C showed a self-cleavage of 0.07.
With A18C U49A U51A C59U U60C the self-cleavage was 0.05.
With A18C U25A U31C U49C A65G U76A U78A the self-cleavage was 0.04.
Variant A18C G19A C40A U43C A64U A65G U80C has a self-cleavage of 0.1.
For C17U A18U U41C U43C U78C, the self-cleavage was 0.14.
Variant A18G A20G A21G U25C U43C has a self-cleavage of 0.58.
C17U C23G A47G A57G gave a self-cleavage of 0.07.
With C17U A28C U51C the self-cleavage was 0.33.
In the case of C17U A56U U60C U72A, the self-cleavage is reported as 0.14.
For A18C G53C U58C U74A, the self-cleavage was 0.14.
A18C A45G U66A showed a self-cleavage of 0.31.
For A18C G24A U48A U60A U67C, the self-cleavage was 0.04.
For C17U U51A U54C, the self-cleavage was 0.41.
Variant C17U C29G U58C U78A has a self-cleavage of 0.03.
C17U U31C U51A A77U U78C gave a self-cleavage of 0.43.
C17U U54C U60C A65G gave a self-cleavage of 0.13.
In the case of A18C U26C U78C, the self-cleavage is reported as 0.
C17U U26C C44A A45G G53A gave a self-cleavage of 0.08.
For A18C A45U U72C, the self-cleavage was 0.25.
A18G A20G A56G showed a self-cleavage of 0.4.
C17U U25C U26A gave a self-cleavage of 0.63.
For C17U U60G U66C U69C G70A, the self-cleavage was 0.12.
A18C A20G U72A U78C showed a self-cleavage of 0.11.
Work on A18C U25C A56G U60C yielded a self-cleavage of 0.08.
Variant A18C A28U U43C U51A C68U has a self-cleavage of 0.4.
C17U C32U A35U U66C C71A U72A gave a self-cleavage of 0.07.
With A18C U26C U49C U58C the self-cleavage was 0.04.
In the case of A18C U49G U67C U80A, the self-cleavage is reported as 0.11.
Variant C17U U54G A64U has a self-cleavage of 0.08.
With A18G A20G G36C U43C U48C A64U U67C the self-cleavage was 0.23.
For C17U C23U U31A U51A, the self-cleavage was 0.1.
With A18C U43C U48C A65U the self-cleavage was 0.17.
For A18C A20G U41C A47G, the self-cleavage was 0.39.
A18G A20G U74C gave a self-cleavage of 0.45.
A18G A20G U31C U54C A57G A64G U67C gave a self-cleavage of 0.2.
C17U U31C U51C U78A gave a self-cleavage of 0.23.
For C17U C29U U54C, the self-cleavage was 0.28.
In the case of A18C U58A U78C, the self-cleavage is reported as 0.07.
C17U A28G A35U U43C A77U showed a self-cleavage of 0.13.
For C17U U41A C62A C68A, the self-cleavage was 0.1.
For A18C A20C G24C G61U A65G, the self-cleavage was 0.04.
For C17U C23U U31C U41C, the self-cleavage was 0.05.
In the case of A18C U26C G33A U48C U49C C50U C62U, the self-cleavage is reported as 0.16.
A18C C29U U41C A56G C62U U72G A75G showed a self-cleavage of 0.11.
In the case of A18C A20G G33A U48C U49C U58A C62U, the self-cleavage is reported as 0.04.
For A18C A20G U51A U80C, the self-cleavage was 0.16.
Work on A18C U48C G53A G63U yielded a self-cleavage of 0.38.
C17U U26A G33C U69C U80A gave a self-cleavage of 0.15.
C17U A20G U48C C62A U76C gave a self-cleavage of 0.14.
For C17U U25C U31C U72A, the self-cleavage was 0.16.
With A18G A20U A35G G42A U67A the self-cleavage was 0.43.
For C17U A64G U69G U80C, the self-cleavage was 0.1.
For A18C U31C U49C U66C, the self-cleavage was 0.07.
Variant A18C A28U C32A U60C U69A has a self-cleavage of 0.08.
In the case of A18C U25C G53A U54C U72C, the self-cleavage is reported as 0.14.
A18G A20G A21U U48A A57G A64U U74A showed a self-cleavage of 0.07.
In the case of A18C A21U U25C C29U U49C, the self-cleavage is reported as 0.05.
C17U U69C A77C gave a self-cleavage of 0.1.
In the case of A18C G30C U43C A56U, the self-cleavage is reported as 0.15.
Variant A18C U54C A77U U80C has a self-cleavage of 0.39.
Variant C17U U31C U41C U60C U66C has a self-cleavage of 0.05.
For A18C A21G U48C U60A, the self-cleavage was 0.12.
For A18C G24A U78A, the self-cleavage was 0.25.
In the case of C17U A64U A65G A77U, the self-cleavage is reported as 0.13.
In the case of C17U U25C U78C, the self-cleavage is reported as 0.12.
Work on A18C A28U G36C U72C C81G yielded a self-cleavage of 0.06.
C17U A20G A64G gave a self-cleavage of 0.16.
With A18G A20G C50U U76A the self-cleavage was 0.21.
Variant A18C U41A U66C U76C has a self-cleavage of 0.08.
A18C U48C U69C showed a self-cleavage of 0.2.
C17U A21G U43C U48A C79U showed a self-cleavage of 0.06.
Work on A18C A45G U72A yielded a self-cleavage of 0.17.
With C17U A65G U74A the self-cleavage was 0.37.
Work on C17U U51A A64G yielded a self-cleavage of 0.38.
For A18C G24A C27U U58C, the self-cleavage was 0.07.
C17U U26C U43C A56G showed a self-cleavage of 0.12.
Variant A18C A45G U51A U54C U58C C81A has a self-cleavage of 0.12.
In the case of C17U A18U U41C U60G G70U U78C, the self-cleavage is reported as 0.06.

Reference: the RNAGym collection of RNA variant scans (doi:10.1093/nar/gkz1192)
